# In the supplement of paper PMC8728848:
# The other results are listed elsewhere or left out.
# How the values were obtained:
# Assay in all cases: glycan array binding signal (z-score within array); higher = stronger binding
# Conditions in all cases: glycan notation: IUPAC condensed, linker removed
# [1] = target: Gal3S(b1-4)[Fuc(a1-3)]Glc
# Outline: (§1)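 The binding signal is a Z-score computed within each array. Data were drawn from 3228 arrays in the Consortium for Functional Glycomics database, restricted to those with a known protein sequence. Scores were averaged over arrays of the same protein sequence at different concentrations or buffers, and over linkers, and negative values can be taken as non-binding.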
# [2] = target: Gal3S(b1-4)[Fuc(a1-3)]Glc6S
# Outline: as §1
# [3] = target: Gal3S4S(b1-4)GlcNAc
# Outline: as §1
# [4] = target: Gal3S6S(b1-4)GlcNAc
# Outline: as §1
# [5] = target: Gal3S6S(b1-4)GlcNAc6S
# Outline: as §1
# [6] = target: Gal4S(b1-4)GlcNAc
# Outline: as §1
# [7] = target: Gal4S6S(b1-4)GlcNAc
# Outline: as §1
# [8] = target: Gal6S(b1-4)Glc
# Outline: as §1
# [9] = target: Gal6S(b1-4)Glc6S
# Outline: as §1
# [10] = target: Gal6S(b1-4)GlcNAc
# Outline: as §1
# [11] = target: Gal6S(b1-4)GlcNAc6S
# Outline: as §1
# [12] = target: GalNAc(a1-3)Gal
# Outline: as §1
# [13] = target: GalNAc(a1-3)GalNAc
# Outline: as §1
# [14] = target: GalNAc(a1-3)GalNAc(a1-3)Gal(a1-4)Gal(b1-4)GlcNAc
# Outline: as §1
# [15] = target: GalNAc(b1-3)Gal
# Outline: as §1
# [16] = target: GalNAc(b1-3)Gal(a1-4)Gal(b1-4)GlcNAc
# Outline: as §1
# [17] = target: GalNAc(b1-3)Gal(a1-4)Gal(b1-4)GlcNAc(b1-3)Gal(b1-4)Glc
# Outline: as §1
# [18] = target: GalNAc(b1-3)Gal(a1-6)Gal(b1-4)Glc
# Outline: as §1
# [19] = target: GalNAc(b1-3)GalNAc
# Outline: as §1
# [20] = target: GalNAc(b1-4)GlcNAc
# Outline: as §1
# [21] = target: GalNAc(b1-4)GlcNAc(b1-2)Man(a1-3)[GalNAc(b1-4)GlcNAc(b1-2)Man(a1-6)]Man(b1-4)GlcNAc(b1-4)GlcNAc
# Outline: as §1
# [22] = target: Glc(a1-4)Glc
# Outline: as §1
# [23] = target: Glc(a1-6)Glc(a1-6)Glc
# Outline: as §1
# [24] = target: Glc(b1-4)Glc
# Outline: as §1
# [25] = target: Glc(b1-6)Glc
# Outline: as §1
# [26] = target: GlcA(b1-3)Gal
# Outline: as §1
# [27] = target: GlcA(b1-3)GlcNAc
# Outline: as §1
# [28] = target: GlcA(b1-6)Gal
# Outline: as §1
# [29] = target: GlcNAc(a1-3)Gal(b1-4)GlcNAc
# Outline: as §1
# [30] = target: GlcNAc(a1-4)Gal(b1-3)GlcNAc
# Outline: as §1
# [31] = target: GlcNAc(a1-4)Gal(b1-4)GalNAc
# Outline: as §1
# [32] = target: GlcNAc(a1-4)Gal(b1-4)GlcNAc
# Outline: as §1
# [33] = target: GlcNAc(a1-4)Gal(b1-4)GlcNAc(b1-3)Gal(b1-4)Glc
# Outline: as §1
# [34] = target: GlcNAc(a1-4)Gal(b1-4)GlcNAc(b1-3)Gal(b1-4)GlcNAc
# Outline: as §1
# [35] = target: GlcNAc(a1-4)Gal(b1-4)GlcNAc(b1-3)Gal(b1-4)GlcNAc(b1-3)Gal(b1-4)GlcNAc
# Outline: as §1
# [36] = target: GlcNAc(a1-4)Gal(b1-4)GlcNAc(b1-3)Gal(b1-4)[Fuc(a1-3)]GlcNAc(b1-3)Gal(b1-4)[Fuc(a1-3)]GlcNAc
# Outline: as §1
# [37] = target: GlcNAc(a1-6)Gal(b1-4)GlcNAc
# Outline: as §1
binder,measurement,setting,value
"exo-alpha-sialidase (Propionibacterium acnes), Q6A7G1 (protein) GSHMSGRAPAPVAATTQPKLVTGDITSTDQSGTNLFFGKKIVRNARGAIMKVDRTWPAAVPAPLPDVRADSSTRMLLGPVVDLAVNEHPEGVFYRIPALATASNGDLLASYDLRPGSAGDAPNPNSIVQRRSRDNGRTWGPQTVIHAGTPGRRKVGYSDPSYLVDPATGRILNFHVKSYDRGFATSEVGTDPDDRHVLHAEVSTSTDNGHTWTHRDITREITSDPTTRTRFVASGQGIALLHGPHAGRLIAQMTVRNSVGQQAQSIYSDDHGITWHAGNPVGRMMDENKVVELSDGTLMLNSRDAARSGRRKVAYSQDGGLTWGPVKLVDDLIDPTNNAQIIRAYPNARAGSAKARILLFTNARNATERVNGTLSVSCDDGRTWVSHQTYMPGEVGYTTAAVQSDGALGVLWERDGIRYSTIPMGWLNSVCPLAPSGRPTSGKPTSGTSLPPTAT",glycan array binding signal (z-score),[1],-0.324
same,glycan array binding signal (z-score),[2],-0.151
same,glycan array binding signal (z-score),[3],-0.322
same,glycan array binding signal (z-score),[4],-0.227
same,glycan array binding signal (z-score),[5],-0.209
same,glycan array binding signal (z-score),[6],-0.361
same,glycan array binding signal (z-score),[7],-0.226
same,glycan array binding signal (z-score),[8],-0.332
same,glycan array binding signal (z-score),[9],-0.262
same,glycan array binding signal (z-score),[10],-0.342
same,glycan array binding signal (z-score),[11],-0.334
same,glycan array binding signal (z-score),[12],-0.369
same,glycan array binding signal (z-score),[13],-0.305
same,glycan array binding signal (z-score),[14],-0.368
same,glycan array binding signal (z-score),[15],-0.362
same,glycan array binding signal (z-score),[16],-0.354
same,glycan array binding signal (z-score),[17],-0.36
same,glycan array binding signal (z-score),[18],-0.367
same,glycan array binding signal (z-score),[19],-0.351
same,glycan array binding signal (z-score),[20],-0.325
same,glycan array binding signal (z-score),[21],-0.368
same,glycan array binding signal (z-score),[22],-0.331
same,glycan array binding signal (z-score),[23],-0.324
same,glycan array binding signal (z-score),[24],-0.354
same,glycan array binding signal (z-score),[25],-0.318
same,glycan array binding signal (z-score),[26],-0.304
same,glycan array binding signal (z-score),[27],-0.335
same,glycan array binding signal (z-score),[28],-0.343
same,glycan array binding signal (z-score),[29],-0.369
same,glycan array binding signal (z-score),[30],-0.32
same,glycan array binding signal (z-score),[31],-0.202
same,glycan array binding signal (z-score),[32],-0.264
same,glycan array binding signal (z-score),[33],-0.373
same,glycan array binding signal (z-score),[34],-0.342
same,glycan array binding signal (z-score),[35],-0.346
same,glycan array binding signal (z-score),[36],-0.257
same,glycan array binding signal (z-score),[37],-0.377
